Experimental data: article PMC10094454
These are yes or no findings as the source states them, for the method shown. In cells and extracts the contact can be indirect. Some binding calls cover weakened binding; strength is not graded here. Where a sequence is shown, tags or fusion partners need not be part of it. Values belong to the molecule of their own block, whether it stands above or below them.

Sequences of proteins named here, by UniProt entry; tags and fusion partners are left off. A change or cut given only in a name is not applied to a line headed by its entry.
UniProt P11440: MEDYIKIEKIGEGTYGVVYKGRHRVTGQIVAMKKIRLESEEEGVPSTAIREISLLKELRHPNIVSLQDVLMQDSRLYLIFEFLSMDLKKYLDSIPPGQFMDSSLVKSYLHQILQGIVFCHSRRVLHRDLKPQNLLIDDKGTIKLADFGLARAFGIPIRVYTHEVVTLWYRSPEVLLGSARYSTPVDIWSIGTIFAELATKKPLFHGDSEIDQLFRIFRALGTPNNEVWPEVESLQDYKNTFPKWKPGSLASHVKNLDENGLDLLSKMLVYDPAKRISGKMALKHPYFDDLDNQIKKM
UniProt Q64261: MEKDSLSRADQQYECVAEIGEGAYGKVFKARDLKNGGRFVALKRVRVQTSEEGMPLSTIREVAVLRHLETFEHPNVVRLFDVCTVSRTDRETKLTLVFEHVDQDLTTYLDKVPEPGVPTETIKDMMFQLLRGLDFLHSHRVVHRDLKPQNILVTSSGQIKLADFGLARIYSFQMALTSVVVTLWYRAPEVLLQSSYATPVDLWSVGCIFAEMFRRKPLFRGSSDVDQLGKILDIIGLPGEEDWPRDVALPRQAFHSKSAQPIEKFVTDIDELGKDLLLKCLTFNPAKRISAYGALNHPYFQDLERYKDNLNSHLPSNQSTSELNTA
UniProt P25322: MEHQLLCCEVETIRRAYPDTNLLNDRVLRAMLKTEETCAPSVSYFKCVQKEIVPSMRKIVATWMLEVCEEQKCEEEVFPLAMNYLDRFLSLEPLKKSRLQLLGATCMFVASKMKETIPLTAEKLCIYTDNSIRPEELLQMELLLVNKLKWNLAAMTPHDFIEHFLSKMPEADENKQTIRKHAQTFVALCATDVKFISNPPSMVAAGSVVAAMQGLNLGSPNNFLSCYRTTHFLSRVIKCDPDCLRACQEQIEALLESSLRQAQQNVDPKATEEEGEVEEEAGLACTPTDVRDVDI
UniProt P51943: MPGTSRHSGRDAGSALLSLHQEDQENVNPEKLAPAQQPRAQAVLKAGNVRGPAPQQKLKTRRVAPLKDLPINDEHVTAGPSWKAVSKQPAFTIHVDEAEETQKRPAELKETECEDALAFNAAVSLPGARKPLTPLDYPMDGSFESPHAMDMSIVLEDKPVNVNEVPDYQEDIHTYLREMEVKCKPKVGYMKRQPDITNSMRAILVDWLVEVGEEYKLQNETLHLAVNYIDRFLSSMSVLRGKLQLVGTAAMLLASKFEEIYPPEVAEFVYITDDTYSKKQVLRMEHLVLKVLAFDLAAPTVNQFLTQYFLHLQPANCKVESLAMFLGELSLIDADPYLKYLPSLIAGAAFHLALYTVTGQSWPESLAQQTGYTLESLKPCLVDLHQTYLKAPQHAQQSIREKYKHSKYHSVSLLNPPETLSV
UniProt P24860: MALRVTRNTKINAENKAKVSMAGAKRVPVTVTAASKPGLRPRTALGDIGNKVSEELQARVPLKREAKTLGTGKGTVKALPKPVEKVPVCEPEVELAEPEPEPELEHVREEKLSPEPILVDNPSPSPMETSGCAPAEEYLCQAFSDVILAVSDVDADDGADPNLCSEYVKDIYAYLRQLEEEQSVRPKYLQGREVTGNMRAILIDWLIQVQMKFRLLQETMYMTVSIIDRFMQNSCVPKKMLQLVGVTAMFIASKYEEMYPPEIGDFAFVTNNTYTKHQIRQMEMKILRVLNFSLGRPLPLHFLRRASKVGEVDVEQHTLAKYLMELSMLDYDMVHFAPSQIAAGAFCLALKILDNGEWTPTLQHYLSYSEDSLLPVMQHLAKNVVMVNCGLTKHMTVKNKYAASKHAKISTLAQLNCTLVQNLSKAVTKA

What was measured:
[1] = target: T1, GST-Tceal7 (1–98) (mouse) (UniProt A3KGA4); assay: pull-down; 10 μg GST-Tceal7 or its deletions bound to GST-tag resin beads, incubated with HEK293T cell lysate overexpressing 6×Myc tagged Cyclin or Cdk protein for 2 h at 4 °C; washed thrice with PBS, 10% glycerol, 1% Triton X-100; western blot with anti-Myc antibody; only the target purified
T1 sequence: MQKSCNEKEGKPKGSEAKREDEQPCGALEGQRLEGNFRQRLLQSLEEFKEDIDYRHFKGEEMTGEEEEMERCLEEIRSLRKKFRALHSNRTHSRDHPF

3×HA-Tceal7 (mouse) = target: T2, 3×HA-Tceal7 (mouse) (UniProt A3KGA4); assay: co-IP; HEK293T cells co-transfected with 3×HA-Tceal7 and 6×Myc-Cdk1 for 24 h; lysate incubated with anti-HA antibody or Rat IgG control overnight at 4 °C, protein A/G agarose 2 h; western blot with anti-Myc antibody
T2 sequence: T1 sequence

[2] = target: T3, GST-Tceal7-C (77–98) (mouse) (UniProt A3KGA4); assay: pull-down; 10 μg GST-Tceal7 or its deletions bound to GST-tag resin beads, incubated with HEK293T cell lysate overexpressing 6×Myc tagged Cyclin or Cdk protein for 2 h at 4 °C; washed thrice with PBS, 10% glycerol, 1% Triton X-100; western blot with anti-Myc antibody; only the target purified
T3 sequence: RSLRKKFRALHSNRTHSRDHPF

[3] = target: T4, GST-Tceal7-M (34–76) (mouse) (UniProt A3KGA4); assay: as above
T4 sequence: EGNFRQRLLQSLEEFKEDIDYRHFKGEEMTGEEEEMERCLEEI

[4] = target: T5, GST-Tceal7-N (1–33) (mouse) (UniProt A3KGA4); assay: as above
T5 sequence: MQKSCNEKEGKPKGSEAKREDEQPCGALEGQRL

Molecule: 6×Myc-Cdk1-N (1–85) (from UniProt P11440 1-85) (domain or fragment)
binding [1]: no binding (tested: 10 μg GST-Tceal7 on beads)

Molecule: 6×Myc-Cdk1-C (209–297) (from UniProt P11440 209-297) (domain or fragment)
binding [1]: no binding (tested: 10 μg GST-Tceal7 on beads)

Molecule: 6×Myc tagged Cdk6 (from UniProt Q64261 1-326)
binding [1]: no binding (tested: 10 μg GST-Tceal7 on beads)

Molecule: 6×Myc tagged Cyclin D1 (from UniProt P25322 1-295)
binding [1]: no binding (tested: 10 μg GST-Tceal7 on beads)

Molecule: 6×Myc tagged Cyclin A2 (from UniProt P51943 1-422)
binding [1]: no binding (tested: 10 μg GST-Tceal7 on beads)

binding (3×HA-Tceal7 (mouse)): binds | binding [1]: binds | binding [2]: binds | binding [3]: binds
Molecule: 6×Myc-Cdk1 (1–297) (from UniProt P11440 1-297)
binding [4]: no binding (tested: 10 μg GST fusion on beads)

binding [1]: binds
Molecule: 6×Myc-Cdk1-M (86–208) (from UniProt P11440 86-208) (domain or fragment)

Molecule: 6×Myc tagged Cyclin B1 (from UniProt P24860 1-430)
binding [1]: no binding (tested: 10 μg GST-Tceal7 on beads)

Molecule: 6×Myc tagged Cdk2 (from UniProt P97377-1 1-346)
binding [1]: no binding (tested: 10 μg GST-Tceal7 on beads)

B1: 6×Myc tagged Cdk4 (protein, UniProt P30285 1-303)
chain: MAATRYEPVAEIGVGAYGTVYKARDPHSGHFVALKSVRVPNGGAAGGGLPVSTVREVALLRRLEAFEHPNVVRLMDVCATSRTDRDIKVTLVFEHIDQDLRTYLDKAPPPGLPVETIKDLMRQFLSGLDFLHANCIVHRDLKPENILVTSNGTVKLADFGLARIYSYQMALTPVVVTLWYRAPEVLLQSTYATPVDMWSVGCIFAEMFRRKPLFCGNSEADQLGKIFDLIGLPPEDDWPREVSLPRGAFAPRGPRPVQSVVPEMEESGAQLLLEMLTFNPHKRISAFRALQHSYLHKEESDAE
binding [1]: no binding (tested: 10 μg GST-Tceal7 on beads)
